# The supplement of paper PMC6089552
# Screen size: about 3,200 compounds; about 300 (9.4%) showed activity. The entries are a selection whose mix differs from that of the whole data set.
# Tested on: A673/TR/shEF
# Assay: cell viability (LOESS-normalised, relative to median of negative controls) (log2 ratio); higher = more viable cells (less compound effect), active = hit call of the paper (over 3 MAD below the median)
# Conditions: treatment time: 72 h
# Procedure, shortened: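 For three days, A673/TR/shEF Ewing sarcoma cells in 384-well plates (1,500 per well) were treated with library compounds at two or more concentrations or with DMSO controls, after doxycycline had been added or withheld 24 h beforehand to induce EWS-FLI1 shRNA knockdown. Viability was read by CellTiter-Glo luminescence on an Envision reader. The data were LOESS-corrected per plate, divided by the median of negative controls and log2-transformed.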
# [1] = 0.25 µM, library screen: screen1, EWS-FLI1 expression: high (no doxycycline)
# [2] = 0.25 µM, library screen: screen1, EWS-FLI1 expression: low (doxycycline-induced shRNA knockdown)
# [3] = 2.5 µM, library screen: screen1, EWS-FLI1 expression: high (no doxycycline)
# [4] = 2.5 µM, library screen: screen1, EWS-FLI1 expression: low (doxycycline-induced shRNA knockdown)
# [5] = 0.025 µM, library screen: screen1, EWS-FLI1 expression: high (no doxycycline)
# [6] = 0.025 µM, library screen: screen1, EWS-FLI1 expression: low (doxycycline-induced shRNA knockdown)
# [7] = 0.25 µM, library screen: screen2, EWS-FLI1 expression: high (no doxycycline)
# [8] = 0.25 µM, library screen: screen2, EWS-FLI1 expression: low (doxycycline-induced shRNA knockdown)
# [9] = 2.5 µM, library screen: screen2, EWS-FLI1 expression: high (no doxycycline)
# [10] = 2.5 µM, library screen: screen2, EWS-FLI1 expression: low (doxycycline-induced shRNA knockdown)
# [11] = 25 µM, library screen: screen1, EWS-FLI1 expression: high (no doxycycline)
# [12] = 25 µM, library screen: screen1, EWS-FLI1 expression: low (doxycycline-induced shRNA knockdown)
# [13] = 0.103 µM, library screen: screen3, EWS-FLI1 expression: high (no doxycycline)
# [14] = 0.103 µM, library screen: screen3, EWS-FLI1 expression: low (doxycycline-induced shRNA knockdown)
# [15] = 0.308 µM, library screen: screen3, EWS-FLI1 expression: high (no doxycycline)
# [16] = 0.308 µM, library screen: screen3, EWS-FLI1 expression: low (doxycycline-induced shRNA knockdown)
# [17] = 0.926 µM, library screen: screen3, EWS-FLI1 expression: high (no doxycycline)
# [18] = 0.926 µM, library screen: screen3, EWS-FLI1 expression: low (doxycycline-induced shRNA knockdown)
# [19] = 2.8 µM, library screen: screen3, EWS-FLI1 expression: high (no doxycycline)
# [20] = 2.8 µM, library screen: screen3, EWS-FLI1 expression: low (doxycycline-induced shRNA knockdown)
# [21] = 8.3 µM, library screen: screen3, EWS-FLI1 expression: high (no doxycycline)
# [22] = 8.3 µM, library screen: screen3, EWS-FLI1 expression: low (doxycycline-induced shRNA knockdown)
# [23] = 25 µM, library screen: screen3, EWS-FLI1 expression: high (no doxycycline)
# [24] = 25 µM, library screen: screen3, EWS-FLI1 expression: low (doxycycline-induced shRNA knockdown)
compound,measurement,setting,value
Cc1ccccc1CN1CCN(Cc2ccco2)CC1,cell viability (log2),[1],inactive: 0.12
same,cell viability (log2),[2],inactive: 0.0129
same,cell viability (log2),[3],inactive: 0.0799
same,cell viability (log2),[4],inactive: -0.0931
N=C1C=CC(=C(c2ccc(N)cc2)c2ccc(N)cc2)C=C1,cell viability (log2),[1],active: -0.412
same,cell viability (log2),[2],active: -0.563
same,cell viability (log2),[3],active: -3.76
same,cell viability (log2),[4],active: -3.35
COc1cc2ncc(-c3ccccc3)nc2cc1OC,cell viability (log2),[5],inactive: 0.165
same,cell viability (log2),[6],inactive: -0.00441
same,cell viability (log2),[1],inactive: 0.202
same,cell viability (log2),[2],inactive: 0.0199
same,cell viability (log2),[7],inactive: 0.139
same,cell viability (log2),[8],inactive: 0.0671
same,cell viability (log2),[3],inactive: -0.0715
same,cell viability (log2),[4],inactive: 0.188
same,cell viability (log2),[9],inactive: 0.212
same,cell viability (log2),[10],inactive: 0.201
same,cell viability (log2),[11],active: -0.157
same,cell viability (log2),[12],inactive: 0.175
OC[C@@H](O)C(O)[C@H](O)CO,cell viability (log2),[1],inactive: 0.179
same,cell viability (log2),[2],inactive: 0.0545
same,cell viability (log2),[3],inactive: 0.145
same,cell viability (log2),[4],inactive: 0.0215
COc1cc(O)c2c(=O)c(O)c(-c3ccc(O)c(O)c3)oc2c1,cell viability (log2),[1],inactive: -0.00867
same,cell viability (log2),[2],inactive: 0.0259
same,cell viability (log2),[3],inactive: 0.0453
same,cell viability (log2),[4],inactive: 0.0969
CC(=O)NO,cell viability (log2),[1],inactive: 0.0521
same,cell viability (log2),[2],inactive: 0.00845
same,cell viability (log2),[3],inactive: 0.104
same,cell viability (log2),[4],inactive: 0.202
CC(N)(Cc1ccc(O)c(O)c1)C(=O)O (stereo not drawn),cell viability (log2),[7],inactive: 0.178
same,cell viability (log2),[8],inactive: 0.0804
same,cell viability (log2),[9],inactive: 0.0937
same,cell viability (log2),[10],inactive: 0.102
CC(C)(Oc1ccc(Cl)cc1)C(=O)O,cell viability (log2),[1],inactive: 0.146
same,cell viability (log2),[2],inactive: 0.0417
same,cell viability (log2),[3],inactive: 0.186
same,cell viability (log2),[4],inactive: 0.0422
CN1CCCN=C1COC(=O)C(O)(c1ccccc1)C1CCCCC1 (stereo not drawn),cell viability (log2),[1],inactive: 0.0812
same,cell viability (log2),[2],inactive: -0.00447
same,cell viability (log2),[3],inactive: 0.0266
same,cell viability (log2),[4],inactive: 0.0104
CSc1ccc(C(=O)c2[nH]c(=O)[nH]c2C)cc1,cell viability (log2),[7],inactive: 0.128
same,cell viability (log2),[8],inactive: 0.0675
same,cell viability (log2),[9],inactive: 0.157
same,cell viability (log2),[10],inactive: 0.089
CC(C)(S)[C@@H](N)C(=O)O,cell viability (log2),[1],inactive: 0.127
same,cell viability (log2),[2],inactive: -0.0401
same,cell viability (log2),[3],inactive: 0.158
same,cell viability (log2),[4],inactive: 0.139
CO[C@H]1C[C@H](O[C@H]2[C@H](C)[C@@H](O[C@@H]3O[C@H](C)C[C@H](N(C)C)[C@H]3OC(C)=O)[C@@H](C)C[C@@]3(CO3)C(=O)[C@H](C)[C@@H](OC(C)=O)[C@@H](C)[C@@H](C)OC(=O)[C@@H]2C)O[C@@H](C)[C@@H]1OC(C)=O,cell viability (log2),[1],inactive: 0.146
same,cell viability (log2),[2],inactive: -0.0307
same,cell viability (log2),[3],inactive: 0.205
same,cell viability (log2),[4],inactive: 0.063
COc1ccc2c(c1)CC[C@@H]1[C@@H]2CC[C@]2(C)[C@@H](NCCCCCCN3C(=O)C=CC3=O)CC[C@@H]12,cell viability (log2),[7],inactive: 0.132
same,cell viability (log2),[8],inactive: 0.0029
same,cell viability (log2),[9],inactive: 0.104
same,cell viability (log2),[10],inactive: 0.128
CC(C)N1C(=O)C(=C2C(=O)N(C)c3ccccc32)SC1=S,cell viability (log2),[1],inactive: 0.0638
same,cell viability (log2),[2],inactive: 0.00946
same,cell viability (log2),[3],inactive: 0.0618
same,cell viability (log2),[4],inactive: 0.138
NCC1CCC(C(=O)O)CC1 (stereo not drawn),cell viability (log2),[1],inactive: 0.00336
same,cell viability (log2),[2],inactive: 0.0452
same,cell viability (log2),[3],inactive: 0.0249
same,cell viability (log2),[4],inactive: 0.138
CC(C)(C)n1nc(-c2ccc(Cl)cc2)c2c(N)ncnc21,cell viability (log2),[5],inactive: 0.227
same,cell viability (log2),[6],inactive: -0.0277
same,cell viability (log2),[1],inactive: 0.174
same,cell viability (log2),[2],inactive: 0.0475
same,cell viability (log2),[3],active: -0.388
same,cell viability (log2),[4],inactive: 0.0249
same,cell viability (log2),[11],active: -0.453
same,cell viability (log2),[12],inactive: -0.00123
CCCCCCCCCCC[C@@H](C[C@@H]1OC(=O)[C@H]1CCCCCC)OC(=O)[C@H](CC(C)C)NC=O,cell viability (log2),[13],inactive: 0.0583
same,cell viability (log2),[14],inactive: 0.00452
same,cell viability (log2),[1],inactive: -0.0226
same,cell viability (log2),[2],inactive: 0.0354
same,cell viability (log2),[15],inactive: 0.0475
same,cell viability (log2),[16],inactive: 0.11
same,cell viability (log2),[17],inactive: -0.01
same,cell viability (log2),[18],inactive: 0.0194
same,cell viability (log2),[3],active: -0.116
same,cell viability (log2),[4],inactive: 0.178
same,cell viability (log2),[19],inactive: -0.0124
same,cell viability (log2),[20],inactive: 0.136
same,cell viability (log2),[21],inactive: -0.103
same,cell viability (log2),[22],inactive: -0.0203
same,cell viability (log2),[23],inactive: -0.119
same,cell viability (log2),[24],inactive: -0.0365
S=C(Nc1ccccc1)Nc1nccs1,cell viability (log2),[7],inactive: 0.0659
same,cell viability (log2),[8],inactive: 0.111
same,cell viability (log2),[9],inactive: 0.0734
same,cell viability (log2),[10],inactive: 0.0848
CC(=O)N[C@@H](CC(=O)O)C(=O)O,cell viability (log2),[1],inactive: 0.166
same,cell viability (log2),[2],inactive: 0.0323
same,cell viability (log2),[3],inactive: 0.113
same,cell viability (log2),[4],inactive: -0.0432
O=C1O[C@H](CO)[C@@H](O)[C@H](O)[C@H]1O,cell viability (log2),[1],inactive: 0.0849
same,cell viability (log2),[2],inactive: 0.0934
same,cell viability (log2),[3],inactive: 0.14
same,cell viability (log2),[4],inactive: 0.0928
COc1cc(C/C=C/c2ccccc2)c(OC)cc1O,cell viability (log2),[1],inactive: 0.135
same,cell viability (log2),[2],inactive: 0.0292
same,cell viability (log2),[3],inactive: 0.0659
same,cell viability (log2),[4],inactive: 0.128
CN1CCC(=C2c3ccccc3CC(=O)c3sccc32)CC1,cell viability (log2),[1],inactive: 0.205
same,cell viability (log2),[2],inactive: 0.03
same,cell viability (log2),[7],inactive: 0.22
same,cell viability (log2),[8],inactive: 0.105
same,cell viability (log2),[3],inactive: 0.214
same,cell viability (log2),[4],inactive: 0.187
same,cell viability (log2),[9],inactive: 0.09
same,cell viability (log2),[10],inactive: 0.143
COc1ccccc1N1CCN(CC(O)COc2cccc3ccccc23)CC1 (stereo not drawn),cell viability (log2),[13],inactive: 0.000176
same,cell viability (log2),[14],inactive: 0.0198
same,cell viability (log2),[7],inactive: 0.158
same,cell viability (log2),[8],inactive: 0.0891
same,cell viability (log2),[15],inactive: 0.0232
same,cell viability (log2),[16],inactive: 0.0219
same,cell viability (log2),[17],inactive: 0.0654
same,cell viability (log2),[18],inactive: 0.0336
same,cell viability (log2),[9],inactive: 0.173
same,cell viability (log2),[10],inactive: 0.0627
same,cell viability (log2),[19],inactive: 0.0333
same,cell viability (log2),[20],inactive: -0.000649
same,cell viability (log2),[21],inactive: 0.0714
same,cell viability (log2),[22],inactive: 0.0523
same,cell viability (log2),[23],inactive: -0.00126
same,cell viability (log2),[24],inactive: 0.031
CC[C@H](CC[C@@H](C)[C@H]1CC[C@H]2[C@@H]3CC=C4C[C@@H](O)CC[C@]4(C)[C@H]3CC[C@]12C)C(C)C,cell viability (log2),[1],inactive: 0.124
same,cell viability (log2),[2],inactive: 0.0474
same,cell viability (log2),[3],inactive: 0.11
same,cell viability (log2),[4],inactive: 0.122
COc1cc(OC)c(C2NC(=S)NC(C)=C2C(=O)Nc2cccc(Cl)c2)cc1OC (stereo not drawn),cell viability (log2),[1],inactive: 0.0501
same,cell viability (log2),[2],inactive: 0.0639
same,cell viability (log2),[3],inactive: 0.0887
same,cell viability (log2),[4],inactive: 0.0905
CC(=O)NCCc1c[nH]c2ccc(O)cc12,cell viability (log2),[1],inactive: 0.044
same,cell viability (log2),[2],inactive: -0.00702
same,cell viability (log2),[7],inactive: -0.0254
same,cell viability (log2),[8],inactive: 0.142
same,cell viability (log2),[3],inactive: 0.159
same,cell viability (log2),[4],inactive: 0.048
same,cell viability (log2),[9],inactive: 0.205
same,cell viability (log2),[10],inactive: 0.269
